Experiment [1] concerns the target T1, Flag-tagged OSBP 405–729 (human) (UniProt P22059).
T1 sequence: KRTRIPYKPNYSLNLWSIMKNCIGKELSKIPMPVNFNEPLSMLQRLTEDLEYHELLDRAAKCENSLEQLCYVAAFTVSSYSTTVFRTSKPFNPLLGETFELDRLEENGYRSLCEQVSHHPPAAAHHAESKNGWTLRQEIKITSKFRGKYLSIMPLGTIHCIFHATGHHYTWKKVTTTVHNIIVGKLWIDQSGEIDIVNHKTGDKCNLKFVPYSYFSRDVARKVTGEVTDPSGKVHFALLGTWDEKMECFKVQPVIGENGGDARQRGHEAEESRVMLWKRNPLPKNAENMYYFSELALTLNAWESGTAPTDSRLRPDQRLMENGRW
Description: co-IP; HEK293FT cells coexpressing Flag-tagged OSBP and Myc-tagged RELCH constructs; anti-Flag M2 affinity gel, elution with Flag-peptide, immunoblot with Myc and Flag antibodies. In general terms: Immunoblotting shows a protein as a band on a membrane.

Experiment [2] has as its target T2, Flag-OSBP, full length (human) (UniProt P22059).
T2 sequence: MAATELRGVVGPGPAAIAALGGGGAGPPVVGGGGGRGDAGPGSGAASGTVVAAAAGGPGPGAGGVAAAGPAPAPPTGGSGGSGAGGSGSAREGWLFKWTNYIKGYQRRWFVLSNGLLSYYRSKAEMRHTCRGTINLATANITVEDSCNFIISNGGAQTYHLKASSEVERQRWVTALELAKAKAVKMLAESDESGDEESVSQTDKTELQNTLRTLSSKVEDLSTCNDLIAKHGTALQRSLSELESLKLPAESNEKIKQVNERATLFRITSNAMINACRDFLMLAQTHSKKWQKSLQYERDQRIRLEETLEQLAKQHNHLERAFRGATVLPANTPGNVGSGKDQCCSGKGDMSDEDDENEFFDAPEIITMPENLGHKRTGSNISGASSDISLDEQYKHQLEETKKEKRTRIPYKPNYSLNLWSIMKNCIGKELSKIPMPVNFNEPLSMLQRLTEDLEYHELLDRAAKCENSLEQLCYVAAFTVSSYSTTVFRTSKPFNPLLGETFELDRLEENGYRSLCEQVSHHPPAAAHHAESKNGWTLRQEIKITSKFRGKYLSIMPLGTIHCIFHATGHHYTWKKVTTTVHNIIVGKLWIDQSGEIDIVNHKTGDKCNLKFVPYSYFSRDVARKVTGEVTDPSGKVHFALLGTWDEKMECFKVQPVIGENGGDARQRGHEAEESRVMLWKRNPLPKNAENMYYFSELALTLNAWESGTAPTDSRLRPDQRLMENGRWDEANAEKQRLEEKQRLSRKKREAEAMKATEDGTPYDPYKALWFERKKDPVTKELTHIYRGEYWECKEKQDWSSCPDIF
The experiment is described as above.

Experiment [3] has as its target T3, Flag-tagged OSBP 643–807 (human) (UniProt P22059).
T3 sequence: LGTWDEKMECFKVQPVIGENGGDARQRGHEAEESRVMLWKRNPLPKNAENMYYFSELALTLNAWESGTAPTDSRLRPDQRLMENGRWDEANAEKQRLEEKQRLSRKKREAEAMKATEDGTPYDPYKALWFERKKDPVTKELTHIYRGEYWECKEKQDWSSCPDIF
Described as above.

The target of experiment [4] is T4, Flag-tagged OSBP 1–404 (human) (UniProt P22059).
T4 sequence: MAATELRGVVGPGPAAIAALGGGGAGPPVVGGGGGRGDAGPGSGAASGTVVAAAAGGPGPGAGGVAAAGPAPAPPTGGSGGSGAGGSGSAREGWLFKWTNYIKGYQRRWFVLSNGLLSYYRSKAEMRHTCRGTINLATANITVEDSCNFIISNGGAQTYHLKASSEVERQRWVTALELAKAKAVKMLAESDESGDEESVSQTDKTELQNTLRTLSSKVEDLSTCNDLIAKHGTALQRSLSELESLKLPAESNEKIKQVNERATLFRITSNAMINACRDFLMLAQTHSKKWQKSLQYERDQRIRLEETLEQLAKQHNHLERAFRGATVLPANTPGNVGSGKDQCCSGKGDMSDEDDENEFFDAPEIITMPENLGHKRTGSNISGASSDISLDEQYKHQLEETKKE
Described as above.

The target in experiment [5] is T5, Flag-tagged OSBP 458–729 (human) (UniProt P22059).
T5 sequence: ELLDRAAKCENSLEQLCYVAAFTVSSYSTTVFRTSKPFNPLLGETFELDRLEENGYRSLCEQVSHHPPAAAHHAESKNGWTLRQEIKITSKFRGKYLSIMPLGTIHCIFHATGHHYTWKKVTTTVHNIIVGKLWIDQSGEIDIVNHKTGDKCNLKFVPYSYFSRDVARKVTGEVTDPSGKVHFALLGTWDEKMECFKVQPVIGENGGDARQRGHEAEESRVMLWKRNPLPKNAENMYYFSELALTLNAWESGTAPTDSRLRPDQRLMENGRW
The experiment is described as above.

Experiment [6] has as its target T6, Flag-tagged OSBP 405–807 (human) (UniProt P22059).
T6 sequence: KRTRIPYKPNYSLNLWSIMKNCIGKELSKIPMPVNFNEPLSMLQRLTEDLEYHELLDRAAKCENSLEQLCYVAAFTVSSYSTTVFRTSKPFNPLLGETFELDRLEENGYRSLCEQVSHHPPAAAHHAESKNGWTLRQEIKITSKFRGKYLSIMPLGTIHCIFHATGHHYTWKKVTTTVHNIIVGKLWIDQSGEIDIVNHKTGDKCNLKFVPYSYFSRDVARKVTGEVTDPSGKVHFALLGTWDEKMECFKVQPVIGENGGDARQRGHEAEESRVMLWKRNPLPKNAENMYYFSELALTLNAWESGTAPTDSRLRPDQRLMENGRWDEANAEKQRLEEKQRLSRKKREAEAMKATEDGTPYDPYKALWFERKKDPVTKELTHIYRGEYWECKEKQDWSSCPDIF
The description is as above.

The target in experiment [7] is T2, Flag-OSBP, full length (human). Nature of the experiment: co-IP; Flp-In–293 cells coexpressing Flag-, EGFP- and Myc-tagged Rab11a, RELCH and OSBP; anti-Flag M2 affinity gel, immunoblot with EGFP, Myc and Flag antibodies.

Results are given in words; binding and its absence hold for the method and conditions named. Binding seen in cells or lysates may run through a third protein. Some binding calls cover weakened binding; strength is not graded here. Tags and fused reporters may be left off the sequences shown.

B1: Myc-tagged RELCH, full length (protein, UniProt Q148V7 1-1216)
chain: MAAMAPGGGGSGSGVNPFLSDSDEDDDEVAATEDRRAGLRLGAGVGLDPGSAGSLSPQDPMALGSSARPGLAVEMSAAPAALGGSGETPARLSIDAIAAQLLRDQYLLTALELHTELLESGRELPRLRDYFSNPGNFERQSGTPPGMGAPGIPGASIVGGAGGREPSTTSGGGQLNRAGSISTLDSLDFARYSDDGNRETDERVAVLEFELRKAKETIQALRANLTKAAEHEVPLQERKNYKSSPEIQEPIKPLEKRALNFLVNEFLLKNNYKLTSITFSDENDDQDFELWDDVGLNIPKPPDLLQLYRDFGNHQVTGKDLVDVASGVDEDELEALTPILGNVPPTLDTPLPIENTLLVQKLEDKISLLNNEKWSLMEQIRRLESEMDILKAEHFATPAVGDSVQPSLVWSSQKDSEDNRQSPAVNSSDQEKTKDVHLEIPDAADSFIPKENSSGSFPRKEREELPPSSVSNKTTLHFDQPNRKLSPAFHQALLSFCRMSADSRLGSEVSRIADSEKSVMLMLGRCLPHIVPNVLLAKREELIPLILCTACLHPEPKERDQLLHILFNLIKRPDDEQRQMILTGCVAFARHVGPTRVEAELLPQCWEQINHKYPERRLLVAESCGALAPYLPKEIRSSLVLSMLQQMLMEDKADLVREAVIKSLGIIMGYIDDPDKYQQGFELLLSALGDPSERVVSATHQVFLPAYAAWTTELGNLQSHLIPTLLNKIEKLLREGEHGLDEHKLHMYLSALQSLIPSLFALVLQNAPFSSKAKLHGEVPHIEVTRFPRPMSPLQDVSTIIGSREQLAVLLQLYDYQLEHEGTTGWESLLWVVNQLLPQLIEIVGKINVTSTACVHEFSRFFWRLCRTFGKIFTNTKVKPQFQEILRLSEENIDSSAGNGVLTKATVPIYATGVLTCYIQEEDRKLLVGFLEDVMTLLSLSHAPLDSLKASFVELGANPAYHELLLTVLWYGVVHTSALVRCTAARMFELLVKGVNETLVAQRVVPALITLSSDPEISVRIATIPAFGTIMETVIQRELLERVKMQLASFLEDPQYQDQHSLHTEVIRTFGRVGPNAEPRFRDEFVIPHLHKLALVNNLQIVDSKKLDIATHLFEAYSALSCCFISEDLMVNHFLPGLRCLRTDMEHLSPEHEVILSSMIKECEQKVENKTVQEPPGSMSIAASLVSEDTKTKFLNKMGQLTTSGAMLANVFQRKK
As for B1, the binding entry is on record as “binds” in experiment [1]; “binds” in experiment [2]; “no binding” in experiment [3]; “no binding” in experiment [4]; “binds” in experiment [5]; “binds” in experiment [6]. Besides, in experiment [7], the binding result is on record as “binds”.

For the origin of these results see paper PMC5940305, “The Rab11-binding protein RELCH/KIAA1468 controls intracellular cholesterol distribution” (The Journal of Cell Biology, 2018).
